Test results taken from patent US20070105155A1 (Janssen / Centocor, published 2007).

Target: T1, TRPM8-2 fragment (rat TRPM8 M353-T690) (rat, UniProt Q8R455 353-690, 35S-methionine labelled)
T1 construct: In vitro translated from pAGA3; also called TRPM8-2/pAGA3; rTRPM8-2
Test: GST pull-down control (GST alone on beads), autoradiography, FIG. 1B
Description: Agarose-GSH beads (50% (vol./vol.)) bound with about 1 μg of GST or GST-CaM were incubated with 10 μl of ³⁵S-labelled TRPM8 fragment for 30 min at room temperature in a final volume of 200 μl of binding buffer. At the end of the incubation, the beads were washed three times with 1.0 ml of binding buffer and resuspended in 20 μl of 2× laemmli's sample loading buffer. Protein(s) bound to the beads, including the GST-CaM fusion protein, and possibly the ³⁵S-labelled TRPM8 fragment that interact with the GST-CaM fusion protein, were separated by SDS/PAGE followed by autoradiography.

binding result: no binding
B1: GST (other)
chain: not shown
notes: Negative control bait; also called glutathione S-transferase control
